Out of some 370,000 compounds screened, about 150 (0.041%) were called active. Inconclusive results, whose numbers are uncertain, are shown with a selection of clear calls. Calls follow the shape of the dose curve; as a rule, active = well fitted inhibition curve with a large enough effect; inconclusive = small, poorly fitted or top-dose-only effect; inactive = flat fitted curve, though single readings scatter. Potencies of inconclusive entries are left out as doubtful fits.
biological target: Beta-lactamase (Escherichia coli (strain K12)) (UniProt P00811); assay: qHTS Inhibitors of AmpC Beta-Lactamase (assay with detergent); details: AmpC hydrolysis of nitrocefin, absorbance 480 nm, 0.01% Triton; series mostly up to 114 µM; also: nearly all actives have a fitted effect of over 25% in size
Method in brief: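 20 mM phosphate pH 7.0 + 0.01% (detergent screen) or 0.0001% Triton X-100; 5.3 nM AmpC reagent; cpd preinc 15 min RT; nitrocefin (800 uM stock) to start; A480 q20 s × 4 min; Activity was normalised to no-enzyme and no-compound control wells.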
Potency is read from the fitted curve at half-maximal effect; tags tell the direction and shape of the fitted curve.

Sequence of UniProt P00811 (P00811 whole entry, looked up): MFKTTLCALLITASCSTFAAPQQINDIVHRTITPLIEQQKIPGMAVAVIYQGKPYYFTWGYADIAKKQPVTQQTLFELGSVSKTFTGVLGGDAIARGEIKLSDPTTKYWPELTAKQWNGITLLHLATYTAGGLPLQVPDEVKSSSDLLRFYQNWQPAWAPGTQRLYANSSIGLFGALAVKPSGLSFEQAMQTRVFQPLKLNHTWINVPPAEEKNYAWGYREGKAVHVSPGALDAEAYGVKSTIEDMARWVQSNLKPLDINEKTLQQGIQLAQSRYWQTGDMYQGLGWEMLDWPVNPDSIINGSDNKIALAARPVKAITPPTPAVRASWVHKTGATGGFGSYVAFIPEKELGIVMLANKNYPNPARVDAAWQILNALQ

Structure (SMILES)	Potency
c1ccc(Cn2nnnc2CN2CCCC2)cc1	inconclusive [inhibitor, single point]
O=C(Nc1nccs1)c1cccc(S(=O)(=O)N2CCOCC2)c1	inconclusive [inhibitor, full curve, poor fit]
CCOC(=O)C1=C(c2ccccc2)NC(=S)NC1c1cccc([N+](=O)[O-])c1 (stereo not given)	inconclusive [inhibitor, partial curve, poor fit]
Cc1ccc(C(=O)OCC(=O)NNC(=O)COc2ccc(Cl)cc2)c(O)c1	inactive
Cc1ccc(CCNC(=O)c2ccc3c(=O)n(-c4ccccc4)c(=O)[nH]c3c2)cc1	inconclusive [inhibitor, full curve, poor fit]
Cn1cc(S(=O)(=O)N2CCCCC2)cc1C(=O)Nc1cccc(C#N)c1	inactive
O=S(=O)(Nc1nc2ccccc2nc1N1CCN(c2ccccc2)CC1)c1ccc(F)cc1	inconclusive [inhibitor, partial curve]
O=C(O)C1NCCc2ccccc21 (stereo not given)	inconclusive [inhibitor, full curve, poor fit]
CCC(C)NC(=O)c1sc2nc(C)c(C(=O)Nc3ccc(C)cc3C)c(-c3ccccc3Cl)c2c1N (stereo not given)	inactive
COc1ccc(Cc2nc3ccc(C(=O)NCCn4cccn4)cc3o2)cc1	inactive
COc1ccc(NC(=S)Nc2cccc(Cl)c2Cl)cc1OC	inactive
CC(=O)Nc1ccc(OCCCNC(=O)c2c(-c3ccccc3)noc2C)cc1	inactive
COc1cccc(/C=N/NC(=O)c2cc3cc([N+](=O)[O-])ccc3s2)c1O	inconclusive [inhibitor, partial curve]
COC(=O)c1c(NC(=O)COC(=O)CCNS(=O)(=O)c2ccc(NC(C)=O)cc2)sc(C)c1C	inconclusive [inhibitor, partial curve]
CN(C)c1nc(N(C)C)nc(N(C#N)CCOc2ccccc2)n1	inactive
O=C(c1cc(-c2ccncc2)nc2ccccc12)N1CCN(S(=O)(=O)/C=C/c2ccccc2)CC1	inactive
O=C(O)c1ccc(CSc2nnc(-c3ccc(Cl)cc3)o2)cc1	inconclusive [inhibitor, full curve, poor fit]
COc1ccc(N2CC(NC(=O)COc3ccc4ccccc4c3)CC2=O)cc1OC (stereo not given)	inactive
C/C(=N\NC(=O)Cc1ccc(Cl)cc1)c1ccccc1O	inconclusive [inhibitor, full curve, poor fit]
CNC(=O)c1ccsc1NC(=O)C1CCCN1S(=O)(=O)c1cccs1 (stereo not given)	inconclusive [inhibitor, full curve, poor fit]
Cc1ccc(Nc2nc3c(s2)CCC3)c(C)c1	inconclusive [inhibitor, partial curve]
COc1ccc(C2C(C(=O)c3ccco3)=C(O)C(=O)N2CCCn2ccnc2)c(OC)c1 (stereo not given)	inactive
Cc1ccc(C=C2C(=O)c3ccccc3C2=O)s1	inactive

Structure (SMILES)	Potency
O=C(CNC(=S)N(Cc1ccccc1F)C1CCCCC1)NCCCN1CCOCC1	inconclusive [inhibitor, full curve, poor fit]
COC(=O)Nc1ccc(S(=O)(=O)N2CCC(C(=O)N(C)C3CCCCC3)CC2)cc1	inconclusive [inhibitor, full curve, poor fit]
O=C(c1ccc(N2C(=O)C3CCCCC3C2=O)cc1)N1CCCCC1 (stereo not given)	inconclusive [inhibitor, full curve, poor fit]
Cc1ccc(NC(=O)CSc2ncc3ccccn23)cc1C	inactive
CC(Sc1nnc(C2CC2)n1C1CC1)C(=O)NC1(C#N)CCCCC1 (stereo not given)	inconclusive [inhibitor, full curve, poor fit]
CC(=O)Nc1ccc(NC(=O)CCS(=O)(=O)c2ccc3c(c2)CC(=O)N3C)cc1	inactive
C=CCNC(=O)C1CCN(c2nc(C)cc(-c3ccccc3)n2)CC1	inconclusive [inhibitor, full curve, poor fit]
CC1(C)OC(=O)C(=NNc2ccc(Br)cc2)C(=O)O1	inconclusive [inhibitor, full curve]
CCOC(=O)CSc1nnc(-c2ccoc2C)n1-c1ccc(OCC)cc1	inconclusive [inhibitor, full curve]
Cc1cc(C)c(C(=O)COC(=O)c2cccc(S(=O)(=O)NCc3ccccc3)c2)cc1C	inconclusive [inhibitor, full curve, poor fit]
CN(C)CCN(C(=O)c1ccc2c(c1)OCCO2)c1nc2ccc(Cl)cc2s1	inactive
O=C(COC(=O)c1ccccc1-n1cnnn1)c1ccc(Br)cc1	inconclusive [inhibitor, full curve]
CC1=Nc2cc(C(=O)NCCc3ccc(Cl)cc3)ccc2Sc2c(C)ccc(C)c21	inactive
Cc1cc(C)nc(N2CCCC(CCC(=O)NCc3ccc(F)c(F)c3)C2)n1 (stereo not given)	inactive
COc1ccc(S(=O)(=O)Cc2ccc(C(=O)N3CCC(C(N)=O)CC3)o2)cc1	inconclusive [inhibitor, full curve, poor fit]
N#C/C(C(=O)NCc1ccco1)=C1/SC=C(c2ccccc2)N1c1ccccc1	inactive
C#CC1(NC(=O)NS(=O)(=O)c2ccc(C)cc2)CCCCC1	inconclusive [inhibitor, full curve, poor fit]
O=C(ON=C1CCN(S(=O)(=O)c2ccccc2)CC1)c1ccc(F)cc1	inconclusive [inhibitor, partial curve]
Cc1ccc(Cn2c(=N)c(C(=O)NC3CCCC3)cc3c(=O)n4ccccc4nc32)cc1	inconclusive [inhibitor, full curve, poor fit]
O=C(CCl)Nc1ccc2c(c1)OCO2	inactive
COC(=O)Cn1c(C(O)c2ccccc2)nc2ccccc21 (stereo not given)	inactive
CCC(C(=O)NCc1ccco1)N(Cc1cccs1)C(=O)CNS(=O)(=O)c1ccccc1 (stereo not given)	inconclusive [inhibitor, single point]
